Key:
[1] = test system: carbachol-induced bradycardia (mainly muscarinic M2 receptors); experiment: Carbachol induced bradycardia in anesthetized rats; assay type: in vivo, rat; details: i.v.
rabbit eyes (pupil size) = test system: rabbit eyes (pupil size); parameters: AUC^eff0-168 h: unit not given beside the values; details: conc. 0.5%

Compound	bradycardia protective effect [1]	AUC^eff0-168 h (rabbit eyes (pupil size))	Rmax (%) (rabbit eyes (pupil size); 0.1 mL topical, maximum % change in pupil size)
CCOC(=O)C[N+]1(C)[C@@H]2C[C@@H](OC(=O)C(O)(c3cccs3)c3cccs3)C[C@H]1[C@@H]1O[C@@H]12 (stereo partly drawn) [Compound (w), 6β,7β-epoxy-3,8-hydroxy-8-ethoxycarbonylmethyl-8-methyl-1αH,5αH-tropaniun bromide, di-2-thienylglycolate]	less active than an equimolar dose of atropine	–	–
tropicamide	–	451 ± 121	44.64 ± 11.17
